Laboratory results reported in PubChem BioAssay AID686978 (National Center for Advancing Translational Sciences (NCATS), 2013).
Screen size: about 420,000 compounds; about 64,000 (15%) were called active. Inconclusive results, whose numbers are uncertain, are shown with a selection of clear calls. The call rests on the fitted dose curve; in most records, active means well fitted inhibition curve with a large enough effect; inconclusive means small, poorly fitted or top-dose-only effect; inactive means flat fitted curve, though single readings scatter. Potencies of inconclusive entries are left out as doubtful fits.

Experiment: qHTS for Inhibitors of human tyrosyl-DNA phosphodiesterase 1 (TDP1): qHTS in cells in absence of CPT; further: nearly all actives have a fitted effect of over 55% in size
Details: DT40 Tdp1-/- hTDP1 cells, no CPT, ATP luminescence, 48 h; activity change, negative = growth inhibition: at 46.2 µM (top of the series)
Summary of the method: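 Seeded 400 DT40-hTDP1 cells/well (vehicle DMSO, no 20 nM CPT); pinned compounds; ≥48 hr at 37 °C; CellTiter-Glo luminescence as viability measure.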
On the % scale 0 is the no-effect control and ±100 the full control effect; potency means the concentration at half of the fitted maximal effect; tags describe the fitted curve by direction and shape.

Row | SMILES | Potency | activity change, negative = growth inhibition
1 | CC(C)(C)n1nnnc1C(c1cccs1)N1CCN(C/C=C/c2ccccc2)CC1 (stereo not drawn) | inconclusive [inhibitor, single point] | –
2 | O=C(Oc1c(CN2CCOCC2)cc(Cl)c2cccnc12)c1cccs1 | active: 4.61 µM | –
3 | CCc1nnc(NC(=O)CSc2nnc(-c3ccccc3O)n2-c2ccc(C)cc2)s1 | inconclusive [inhibitor, single point] | –
4 | COc1ccc(-c2cc(C(=O)NC3CCCCC3)no2)cc1OC | – | inactive: 14.4%
5 | Nc1ccc2c(c1)nnn2-c1ccccc1 | – | inactive: -22%
6 | Cc1ccc(-n2cnc3cc(C(=O)NC4CCCCCC4)ccc32)cc1Cl | inconclusive [inhibitor, single point] | –
7 | CCOC(=O)c1cc(C#N)c(SC(C(=O)N2CCCCC2)c2ccccc2)nc1C (stereo not drawn) | active: 10 µM | –
8 | O=C(CSc1nc2c(c(=O)n1-c1ccc(F)cc1)SCC2)NCC1CCCO1 (stereo not drawn) | – | inactive: -2.46%
9 | COc1ccc2nc(C)cc(SCC(=O)NNC(=O)COc3cccc4ccccc34)c2c1 | inconclusive [inhibitor, single point] | –
10 | O=C(CN1c2cccc3cccc(c23)S1(=O)=O)NCCc1ccccc1 | – | inactive: -18.2%
11 | O=C(Nc1nc(-c2ccccc2)c(C(=O)c2ccccc2)s1)c1ccc(S(=O)(=O)N2CCCCC2)cc1 | inconclusive [inhibitor, partial curve, poor fit] | –
12 | Cc1ccc(C2C(C#N)=C(N)Oc3n[nH]c(-c4ccccc4)c32)o1 (stereo not drawn) | active: 23.1 µM | –
13 | N#CCCn1cc(CNCc2cccnc2)c(-c2ccccc2)n1 | – | inactive: -14.7%
14 | COc1ccc(CCn2c(=N)c(C(=O)NCc3ccco3)cc3c(=O)n4cccc(C)c4nc32)cc1 | active: 11.6 µM | –
15 | Clc1cccc(Nc2c3c(nc4ncnn24)CCC3)c1 | inconclusive [inhibitor, partial curve] | –
16 | O=C(Nc1ccc2c(c1)Cc1ccccc1-2)c1ccccc1F | inconclusive [inhibitor, single point] | –
17 | CCC(C)C1C(C#N)=C(N)Oc2n[nH]c(-c3ccccc3)c21 (stereo not drawn) | inconclusive [inhibitor, single point] | –
18 | COc1ccc(S(=O)(=O)N(C)CC(=O)NCCC2=CCCCC2)cc1OC | inconclusive [inhibitor, single point] | –
19 | COC(=O)c1c(C)sc(-c2c(-c3ccc4c(c3)OCCO4)[nH]c3c2c(=O)[nH]c(=O)n3C)c1O | active: 20.6 µM | –
20 | CCOc1ccccc1-n1c(SCC(=O)NC(C)CC)nnc1-c1ccoc1C (stereo not drawn) | inconclusive [inhibitor, partial curve] | –
21 | Cc1ccc(NC(=O)C(c2ccc(Cl)cc2Cl)N2CCCC2)cc1 (stereo not drawn) | active: 14.6 µM | –
22 | S=C(NCCc1ccccc1)N1CCN(Cc2ccc(Cl)c(Cl)c2)CC1 | inconclusive [inhibitor, single point] | –
23 | CNC(=O)C1CC(=O)N(c2ccc(OCC(=O)Nc3ccc(F)cc3)cc2)C1 (stereo not drawn) | – | inactive: -24.3%
24 | COc1ccc(-c2nn(C)c3sc(C(=O)N4CCN(c5cccc(Cl)c5)CC4)cc23)cc1OC | – | inactive: -72.9%
25 | CCOc1c(OC(C)=O)ccc(/C=C/c2ccc3cccc(OC(C)=O)c3n2)c1[N+](=O)[O-] | inconclusive [inhibitor, single point] | –

Row | SMILES | Potency | activity change, negative = growth inhibition
26 | O=C(O)c1cccc2c1Cc1cc([N+](=O)[O-])ccc1-2 | inconclusive [inhibitor, partial curve] | –
27 | O=C(O)/C(=C1\OC(=O)c2ccccc21)c1ccccc1 | inconclusive [inhibitor, partial curve] | –
28 | CCN(C)c1cc2c(c3c1ccn3C)C1CCC2C1 (stereo not drawn) | inconclusive [inhibitor, single point] | –
29 | Cc1cc(C)nc(NC(=O)Cc2cccs2)n1 | – | inactive: 0.317%
30 | CCNc1nc(NC(C)(C)C)nc(N2CCCCC2)n1 | active: 20.6 µM | –
31 | COc1cccc(C(=O)NC(=S)Nc2ccccc2N2CCCCC2)c1 | inconclusive [inhibitor, single point] | –
32 | O=C(CSc1nnc(CCc2nc3ccccc3[nH]2)n1-c1ccccc1)NCc1ccccc1 | inconclusive [inhibitor, single point] | –
33 | COc1ccc(N(CC(=O)NCCSCc2ccco2)S(=O)(=O)c2ccccc2)cc1Cl | active: 20.6 µM | –
34 | Cc1c(NC(=O)C(=O)N/N=C/c2cccs2)c(=O)n(-c2ccccc2)n1C | – | inactive: -8.59%
35 | COc1ccc(NC(=O)C2CCN(S(=O)(=O)c3c(C)noc3/C=C/c3ccc(C)cc3)CC2)cc1Cl | – | inactive: -22.7%
36 | Cc1ccc2c(CC(=O)OCC(=O)N(CC(C)C)c3c(N)n(Cc4ccccc4)c(=O)[nH]c3=O)coc2c1 | inconclusive [inhibitor, single point] | –
37 | COC(=O)c1ccccc1OC(=O)c1cc2ccccc2oc1=O | – | inactive: 9.89%
38 | COc1ccc(C2CC(=O)c3c(O)cc(OC4OC(COC5OC(C)C(O)C(O)C5O)C(O)C(O)C4O)cc3O2)cc1O (stereo not drawn) | – | inactive: 0.352%
39 | Cc1c(CNCCCc2ccccc2)c(C(=O)O)c(C)n1Cc1cccc(Cl)c1 | active: 20.6 µM | –
40 | Cc1ccc(C(=O)c2cncc(Br)c2)cc1 | inconclusive [inhibitor, partial curve] | –
41 | O=C(CCN1CCC(c2ccc(Cl)s2)=N1)c1ccc(Cl)s1 | inconclusive [inhibitor, partial curve] | –
42 | O=C(NNC(=O)c1ccncc1)Nc1cccc(C(F)(F)F)c1 | – | inactive: 17.8%
43 | CC(C)(C)c1nc2ccc(NS(=O)(=O)c3ccc(F)c(F)c3F)cc2[nH]1 | – | inactive: -8.73%
44 | CC1(C)CC(=O)C(C(C2=C(O)CC(C)(C)CC2=O)c2cccs2)C(=O)C1 (stereo not drawn) | inconclusive [inhibitor, single point] | –
45 | Cn1c(=O)c2c(nc(N3CCN(c4ccccn4)CC3)n2Cc2ccccc2Cl)n(C)c1=O | inconclusive [inhibitor, single point] | –
46 | CCCCN(C)C(=O)c1nc2ccccn2c1CN1CCC[C@H]1CO | – | inactive: 5.5%
47 | COc1ccccc1N(C)S(=O)(=O)c1ccc(C(=O)NC2CCCCCC2)cc1 | active: 23.1 µM | –
48 | CCC(=O)Nc1nc(C)c(-c2csc(Nc3ccccn3)n2)s1 | inconclusive [inhibitor, partial curve] | –
49 | COc1ccc(S(=O)(=O)c2cn(C)c3cc(N4CCOCC4)c(F)cc3c2=O)cc1 | inconclusive [inhibitor, single point] | –
50 | Cc1ccc(NS(=O)(=O)c2ccc3[nH]c4c(c3c2)CCCCC4)cc1 | inconclusive [inhibitor, single point] | –

Row | SMILES | Potency | activity change, negative = growth inhibition
51 | O=C(O)c1ccc(N/N=C/c2ccc(-c3ccc(Cl)cc3Cl)o2)cc1 | inconclusive [inhibitor, partial curve, poor fit] | –
52 | COc1ccc(NC(=O)c2c(C(F)(F)F)nn(C)c2SCc2ccccc2Cl)cc1 | – | inactive: 5.55%
53 | O=S(=O)(NCCc1ccccn1)c1ccc(-c2ccccn2)s1 | inconclusive [inhibitor, single point] | –
54 | CCCCOC(=O)C(C#N)c1nc2ccccc2nc1N1CCN(Cc2ccc3c(c2)OCO3)CC1 (stereo not drawn) | active: 18.4 µM | –
55 | COC(=O)CC1Oc2ccc(Cl)cc2-n2cc(-c3ccc(F)cc3)nc21 (stereo not drawn) | – | inactive: -18%
56 | COc1ccc2c(c1)S/C(=C\C(=O)c1ccncc1)N2C | inconclusive [inhibitor, single point] | –
57 | Cc1c(C(=O)Nc2ccccc2F)cnn1-c1ccccc1 | inconclusive [inhibitor, partial curve] | –
58 | COc1ccc(NC(=O)C2(C)CCN2Cc2ccc(C(C)C)cc2)cc1OC (stereo not drawn) | active: 23.1 µM | –
59 | c1cncc(-c2cnc3ccccc3c2)c1 | inconclusive [inhibitor, partial curve] | –
60 | Cc1ccc(NC(=O)Nc2ccccc2F)cc1S(=O)(=O)N1CCOCC1 | inconclusive [inhibitor, single point] | –
61 | COc1ccc(Cc2nc3ccc(C(=O)NCC(C)(C)OC)cc3o2)cc1 | inconclusive [inhibitor, single point] | –
62 | COc1ccc(CCN2C(=S)N(c3ccc(Cl)cc3)C(=O)C2CC(N)=O)cc1OC (stereo not drawn) | active: 16.4 µM | –
63 | CCc1ccc(OCC(=O)Nc2ccc3oc(-c4ccc(OC)cc4)nc3c2)cc1 | – | inactive: -27.4%
64 | COCC(=O)OCC(=O)c1cc(C)n(-c2ccc(Br)cc2)c1C | – | inactive: -19.3%
65 | CCCCN1CN(Cc2ccccc2)CNC1=S | inconclusive [inhibitor, single point] | –
66 | CCc1ccc(OCC(=O)Nc2ccc(Cl)c(-c3nc4ncccc4o3)c2)cc1 | inconclusive [inhibitor, partial curve] | –
67 | OC(c1ccc(F)cc1)c1nc(-c2cccs2)cs1 (stereo not drawn) | inconclusive [inhibitor, single point] | –
68 | O=CNCCCc1nc2ccccc2n1Cc1ccccc1 | – | inactive: 8.55%
69 | CCC(=O)Nc1cccc(C(=O)/C=C/c2cc(Br)ccc2OC)c1 | active: 4.11 µM | –
70 | CCOC(=O)C1=C(C)C(c2cccc(Oc3ccccc3)c2)NC(=S)N1 (stereo not drawn) | inconclusive [inhibitor, single point] | –
71 | COc1ccc2cc(C(=O)N3CCOCC3)sc(=O)c2c1OC | inconclusive [inhibitor, partial curve] | –
72 | Cc1ccc(C)c(N(C)S(=O)(=O)c2ccc3[nH]cc(C(=O)NC4CCCC4)c(=O)c3c2)c1 | inconclusive [inhibitor, single point] | –
73 | CC1(C)CC2CC(C)(CN2C(=O)COC(=O)c2ccc(Cl)c(N)c2)C1 (stereo not drawn) | – | inconclusive: -30.5% [inhibitor]
